Measurements published in EPA's CvTdb concentration-time database.
This continues a long series; more values of the same kind are listed elsewhere.

Experiments:
Assay in all cases: concentration in plasma after dosing
[1] = tested on: Rat; conditions: dosed: Isoeugenol, 140 mg/kg, oral, Male, F344/N
[2] = tested on: Rat; conditions: dosed: Isoeugenol, 17 mg/kg, iv, Male, F344/N
[3] = tested on: Rat; conditions: dosed: Isoeugenol, 70 mg/kg, oral, Female, F344/N
[4] = tested on: Rat; conditions: dosed: Isoeugenol, 140 mg/kg, oral, Male, F344/N; remark: listed apart in the source
[5] = tested on: Rat; conditions: 48 h; dosed: Perfluorohexane-1-sulphonic acid – potassium salt; 16 mg/kg; oral; Female; Harlan Sprague Dawley
[6] = tested on: Rat; conditions: dosed: Perfluorohexane-1-sulphonic acid – potassium salt, 16 mg/kg, oral, Male, F344

Compound | concentration in plasma ([1]; 10 min) | concentration in plasma ([1]; 2 h) | concentration in plasma ([2]; 2 min) | concentration in plasma ([2]; 2 h) | concentration in plasma ([3]; 0.5 h) | concentration in plasma ([3]; 6 h) | concentration in plasma ([4]; 20 min) | concentration in plasma ([4]; 6 h) | concentration in plasma [5] | concentration in plasma ([6]; 0.25 h) | concentration in plasma ([6]; 864 h)
C/C=C/c1ccc(O)c(OC)c1 [Isoeugenol] | 1620 ng/mL | 495 ng/mL | 12200 ng/mL | 123 ng/mL | 1260 ng/mL | 158 ng/mL | 2170 ng/mL | 813 ng/mL |  |  | 
O=S(=O)([O-])C(F)(F)C(F)(F)C(F)(F)C(F)(F)C(F)(F)C(F)(F)F.[K+] [Perfluorohexane-1-sulphonic acid – potassium salt] |  |  |  |  |  |  |  |  | 43800 ng/mL | 33200 ng/mL | 26000 ng/mL
